The chains are these.
T1: UNK ZnF1-3 (human, UniProt Q9C0B0 31-174)
T1 sequence: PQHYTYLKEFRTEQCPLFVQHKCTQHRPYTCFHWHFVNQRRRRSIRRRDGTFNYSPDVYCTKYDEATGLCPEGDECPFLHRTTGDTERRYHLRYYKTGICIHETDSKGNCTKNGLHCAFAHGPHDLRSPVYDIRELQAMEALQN

B1: chr7:99593380:99593381:+_ENSMUSG00000052572_ENSMUST00000098308|mus_hu|FALSE|FALSE (ssRNA)
RNA: GGGAGUUCUACAGUCCGACGAUCGGUGAGGAGGCUCUCAUCUCAUCUCUUGGGCAGAAAGCCCGUCAGAGGUUCAUCCCUACACCUGGCACUUUGAGCAAACCAAAGCCUUCCUUCAUACUGCAAUGUCUUUUCUGUCCCACCCAACAGAGGAUUGAGCAUCA
B2: 17222295_17222415_1178_CDS_ENSMUSG00000017485_ENSMUST00000017629|mouse|control|control (ssRNA)
RNA: GGGAGUUCUACAGUCCGACGAUCGGCCACAAUGUCCUUGUCAAGUUUUUCCAUCUUAAAUUUGGAUAGAUCUGGCUGGAAUGUUAUGCAUGUAUAAUCUUCACCAUCAAAAUGUUUAAUUUUGGCUUCAGAAGUCUUCAUCAUCAACAGAGGAUUGAGCAUCA
B3: chr20:39729905:39729906:+_ENSG00000198900_ENST00000361337|hu_mus|FALSE|FALSE (ssRNA)
RNA: GGGAGUUCUACAGUCCGACGAUCAUAUUUGAUAGAACCUUGGAUAUUCUCUGUCCAGGAGACCAGCCAAGUAACCUUGUUAUCAUGUCGGACUUCCUUCCAUUUAUGUCCAGGAGGGGGAGAAGGAACCUUUGCGUCUUUGCUCAACAGAGGAUUGAGCAUCA
B4: 21267519_21269584_1405_CDS_ENSMUSG00000029014_ENSMUST00000030771|mouse|control|control (ssRNA)
RNA: GGGAGUUCUACAGUCCGACGAUCCAUCUGCUCAUUCACUUCUUCUAUCUGUUUUUCAAGUGCAGCUUUUCCUACUUCUCUCGUAGAUGAAGCCAGGAUUUCAUUCAAGCCCUGCAAGCUUGCUAGUUCAAGCCGAUCACAGAGCAACAGAGGAUUGAGCAUCA
B5: chr9:75491700:75491701:-_ENSMUSG00000032181_ENSMUST00000034699|mus_hu|FALSE|FALSE (ssRNA)
RNA: GGGAGUUCUACAGUCCGACGAUCAUAAAUGCGCUUGAUGGCCUCGGCUUCUUCCUUGUCAAGGAUGCCUUUCUCCACAUAAGCAUCAGCUUGUUUAUUGAUGAAGUCUCUCAUCUUUGAAAGGUCAUAAUCUUCUUUAUUUCCCAACAGAGGAUUGAGCAUCA
B6: chr3:150289932:150289933:+_ENSG00000144895_ENST00000460851|hu_mus|FALSE|FALSE (ssRNA)
RNA: GGGAGUUCUACAGUCCGACGAUCCUUGUAGUUUUUAACAUCCCAUACUUCCAUUUGUCCUCGAAGAUUUCCAAAUCCAGCCAGCACUAAUAUAUGUCCAUGAGGGCUAUAGAAGGCUGCGUUGCGAGGACCAGUCCCAAAGUCCAACAGAGGAUUGAGCAUCA
B7: chr1:60041781:60041782:+_ENSMUSG00000041040_ENSMUST00000036540|mus_hu|mus_mus_mus_hu_False|78_108 (ssRNA)
RNA: GGGAGUUCUACAGUCCGACGAUCAAGAGGAGUGAAUUAAAGUAAAUGCAGUAGUGGAAUGGCAAGUUUUAUUUUCCUUCACAAAAGAAAAUCUUUAUAACCCAGUCCUAGUCUUGGACAUAGUGAAAGCUAUAAAUUCUGACUCAACAGAGGAUUGAGCAUCA
B8: chr16:17043922:17043923:+_ENSMUSG00000063358_ENSMUST00000069107|mus_hu|motif|central (ssRNA)
RNA: GGGAGUUCUACAGUCCGACGAUCAGGGCUGCCAGGAGGAAUUCUCUGGACUGAAGAAAUUCUUUGAAAGCAUAAAAGCCACAACGGCCAGAAACCGCCCCUCCAAACGGCUCAAAGGAGUCAAAGUGGAUAAGCCAAGACGGGCAACAGAGGAUUGAGCAUCA
B9: chr14:78183846:78183847:+_ENSG00000119705_ENST00000557342|hu_hu|hu_hu_hu_mus_False|28_98 (ssRNA)
RNA: GGGAGUUCUACAGUCCGACGAUCUCUCAGAAAUCUUUCUUUCUUUUAUGUUUGAGCUCCGUGCAAAGCCUUUGCUCUUUGAGCUUGAACGUGGAUCUAUGGGAGGGCUAUAAUAUGCAGAAAAGGUAAUUUUUUUUUUAAAGACAACAGAGGAUUGAGCAUCA
B10: 96261735_96264329_2187_CDS_ENSG00000134874_ENST00000376829|human|control|control (ssRNA)
RNA: GGGAGUUCUACAGUCCGACGAUCAGAUUCAAAAGCCUGCCAGGCUAAAGGAUUUCCUUUGGGUUCACUGAUACUGUUUAAUGGAUUACAGGUAAAGUCUUUAAUCUGCUGUCUCUGAGUUAUAAUCAGCUCAUUCUGCUCCUGCAACAGAGGAUUGAGCAUCA
B11: 30737854_30738288_992_CDS_ENSG00000099995_ENST00000215793|human|control|control (ssRNA)
RNA: GGGAGUUCUACAGUCCGACGAUCGGUGGGGGGAGGGAAGUUCCCUUGCUCAUUGGGUUGGAAGUCCACUGUUUCCACCACCACAAAAUCAUGCCAGUCGAUCUGAGCAUAGGCCACCCGCUCCUUCUCCUUCUCCUCUUCUUCCAACAGAGGAUUGAGCAUCA
B12: 57578468_57578588_1780_3pUTR_ENSG00000140262_ENST00000343827|human|control|control (ssRNA)
RNA: GGGAGUUCUACAGUCCGACGAUCAUUUGUUGCAAACAUCUCAUGGGCUGAUGUUCUAUCUGAUGAGCUUCCUAUCUUCACUUCUGAUGGAAGUGUUGACCAGUUGCUUUGAUCGUAGGAUUACAUUUGAGUUUCUUGGUUCAACAACAGAGGAUUGAGCAUCA
B13: chr19:36946997:36946998:+_ENSMUSG00000024811_ENSMUST00000025729|mus_hu|FALSE|FALSE (ssRNA)
RNA: GGGAGUUCUACAGUCCGACGAUCAUAUUUUCCUUUUGCUGCUGCUUCAUGUAAAGGUGUAAAUUUCCAUAAAUCAGCUACAUUAACUACUGCUCCAUGUUUAACAAGAAGUUCUGCAACUUCAUAAUGUCCAUAAGAACAUGCCAACAGAGGAUUGAGCAUCA
B14: chr7:6441565:6441566:+_ENSG00000136238_ENST00000348035|hu_hu|FALSE|FALSE (ssRNA)
RNA: GGGAGUUCUACAGUCCGACGAUCGGUGAUGGGAGUCAGCUUCUUCUCCUUCAGUUUCUCGAUCGUGUCUUUAUCAUCCCUAAGAUCAAGUUUAGUUCCCACUAGGAUGAUGGGAGUGUUGGGACAGUGGUGCCGCACCUCAGGCAACAGAGGAUUGAGCAUCA

This is one part of the list.

The target in this assay is T1, UNK ZnF1-3. The assay can be described thus: nsRBNS (natural sequence RNA bind-n-seq); RBNS binding buffer (assumed for nsRBNS): 25 mM Tris pH 7.5, 150 mM KCl, 3 mM MgCl2, 0.01% Triton X-100, 500 ug/ml BSA, 20 U/ml SUPERase-In, 4 C; UNK is unkempt and MSI1 is Musashi-1; names of the RNAs are library labels; protein concentration not given here; high values mean tight binding.
Molecule B1 showed a binding signal of 1.29 enrichment R.
B2: the binding signal turned out to be 0.579 enrichment R.
With B3 the figure was 0.585 enrichment R.
For B4, the binding signal worked out at 0.675 enrichment R.
In the case of B5, the binding signal worked out at 0.384 enrichment R.
With B6 the figure was 1.16 enrichment R; with B7, 0.908 enrichment R; with B8, 1.62 enrichment R.
As for B9, the binding signal was 1.46 enrichment R.
In the case of B10, the binding signal came out at 0.916 enrichment R.
B11 had a binding signal of 1.05 enrichment R.
B12 had a binding signal of 0.274 enrichment R.
Turning to B13, the binding signal stood at 0.737 enrichment R.
Turning to B14, the binding signal was determined as 0.964 enrichment R.

The values above are taken from PMC12136788.
